# The campaign covered roughly 310,000 compounds. About 14,000 (4.5%) showed an effect of 50% or more. The effect is printed as a negative number. The list shows a part of the results.
# Target: human ether-à-go-go-related gene (hERG) potassium channel (human, UniProt Q12809)
# Assay: primary screen, population patch clamp on CHO cells stably expressing hERG
# 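Also: peak tail current of the secondary pulse compared with the same well before compound.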
# Sequence of human ether-à-go-go-related gene (hERG) potassium channel (Q12809 whole entry, looked up): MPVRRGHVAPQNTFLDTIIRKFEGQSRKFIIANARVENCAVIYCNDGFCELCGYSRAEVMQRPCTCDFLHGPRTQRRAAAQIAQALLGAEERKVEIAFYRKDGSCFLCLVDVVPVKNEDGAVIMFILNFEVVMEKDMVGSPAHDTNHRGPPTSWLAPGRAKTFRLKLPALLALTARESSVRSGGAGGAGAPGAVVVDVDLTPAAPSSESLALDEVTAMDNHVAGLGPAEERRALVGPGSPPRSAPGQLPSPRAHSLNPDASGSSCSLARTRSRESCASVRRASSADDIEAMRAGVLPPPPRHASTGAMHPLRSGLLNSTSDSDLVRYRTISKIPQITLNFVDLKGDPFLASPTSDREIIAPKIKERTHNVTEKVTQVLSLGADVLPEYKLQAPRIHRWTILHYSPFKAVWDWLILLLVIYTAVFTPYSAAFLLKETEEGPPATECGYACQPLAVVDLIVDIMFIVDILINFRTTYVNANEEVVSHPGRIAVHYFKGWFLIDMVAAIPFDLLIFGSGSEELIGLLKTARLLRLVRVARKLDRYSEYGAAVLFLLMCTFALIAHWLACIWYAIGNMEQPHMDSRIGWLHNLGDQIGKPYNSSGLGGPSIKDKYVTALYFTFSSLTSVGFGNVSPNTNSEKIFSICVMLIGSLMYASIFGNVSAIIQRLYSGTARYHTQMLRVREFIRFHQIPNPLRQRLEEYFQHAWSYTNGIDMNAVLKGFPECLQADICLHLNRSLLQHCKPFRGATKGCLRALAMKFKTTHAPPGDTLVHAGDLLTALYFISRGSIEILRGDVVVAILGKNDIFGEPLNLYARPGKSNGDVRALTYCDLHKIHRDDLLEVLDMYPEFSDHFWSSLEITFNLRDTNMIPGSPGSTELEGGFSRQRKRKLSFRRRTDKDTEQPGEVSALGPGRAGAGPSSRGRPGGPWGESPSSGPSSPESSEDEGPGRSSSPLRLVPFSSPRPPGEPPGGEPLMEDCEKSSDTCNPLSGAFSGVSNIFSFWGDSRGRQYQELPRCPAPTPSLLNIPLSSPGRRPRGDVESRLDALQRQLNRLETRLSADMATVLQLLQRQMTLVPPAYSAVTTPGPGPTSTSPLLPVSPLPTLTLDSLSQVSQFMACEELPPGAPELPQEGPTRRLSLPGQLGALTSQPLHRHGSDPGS
row,SMILES,"hERG current change (%, negative = inhibition) at 10uM"
1,CCCCc1ccc(-c2ccc(Br)cc2O)nc1,10.4%
2,O=C(NCCCN1CCOCC1)c1cc2c([nH]c3ccccc32)c(-c2cccc(Br)c2)n1,-40.8%
3,CCOC(=O)NC(Nc1nc2ccccc2s1)(C(=O)OCC)C(F)(F)F (stereo not drawn),-2.55%
4,COc1ccccc1/C=C/C(=O)NC1CC2CCC1C2 (stereo not drawn),-3.53%
5,CC(C)Nc1nnc(SC(C)C(=O)Nc2ccc(N3CCOCC3)cc2)s1 (stereo not drawn),4.69%
6,CCOc1ccccc1NC(=O)Cc1coc2ccc(C)cc12,7.85%
7,CC1CCc2c(sc3ncn(N)c(=N)c23)C1 (stereo not drawn),-11.3%
8,Cc1cc(C)cc(C(=O)OCC(=O)Nc2cccc(S(=O)(=O)NC3=NCCCCC3)c2)c1,-10.3%
9,CN(C)/N=C/c1cc(Cl)cc([N+](=O)[O-])c1O,8.21%
10,O=C(CCc1ccc(S(=O)(=O)N2CCOCC2)cc1)N/N=C/c1ccc(O)c(O)c1O,18.9%
11,O=C(COc1ccc(F)cc1)Nc1nnc(S(=O)(=O)N2CCCC2)s1,8.11%
12,Cc1cc(NC(=O)CSc2nc(-c3ccccc3)c(C#N)c(=O)[nH]2)no1,-0.629%
13,COc1ccc(-c2nn(-c3ccccc3)cc2C(=O)NC2CC2)cc1,-4.55%
14,O=C(CSc1nnc(NC(=O)c2ccco2)s1)NC1CCCCC1,2.07%
15,Cc1ccc(Cn2c(C3CCCN3c3nc(-c4ccc(F)cc4)cs3)nc3cc(C(F)(F)F)ccc32)cc1 (stereo not drawn),0.76%
16,O=C(Cn1cnc2ccccc2c1=O)Nc1ccc2c(c1)CCC2,-20%
17,N=c1oc2ccc(Br)cc2cc1C(=O)NCc1ccc(F)cc1,5.37%
18,COc1cccc(N2CCN(C(=O)Nc3ccccc3Cl)CC2)c1,-10.5%
19,COCCNC(=O)CN1C(=O)NC2(CCCCCC2)C1=O,2.42%

row,SMILES,"hERG current change (%, negative = inhibition) at 10uM"
1,Cc1ccc(S(=O)(=O)N2CCN(CC(O)CN3CCOCC3)CC2)cc1 (stereo not drawn),5.52%
2,Cc1cc2c(SCC(=O)N3CCN(c4ccccc4)CC3)ncnc2s1,2.2%
3,Cc1ccc(Nc2nc(N)nc(CN3CCCCCC3)n2)c(C)c1,-45.8%
4,O=C(/C=C/c1ccco1)c1ccccc1O,21.8%
5,O=C(O)C1C2C=CC(C2)C1C(=O)N1CCN(C/C=C/c2ccccc2)CC1 (stereo not drawn),17.1%
6,CCCCC(CC)CNC(=O)C(=O)C1C(=O)Nc2ccccc21 (stereo not drawn),5.84%
7,COc1ccccc1CCC(=O)Nc1ccc2c(c1)CN(Cc1ccc(C)o1)CC2,-27%
8,COc1ccccc1CN1C2CCCC1CC(NC(=O)/C=C/c1ccccc1)C2 (stereo not drawn),-59.4%
9,COC(=O)c1cc2occc2n1Cc1ccc(Cl)cc1,9.68%
10,O=C(NC12CC3CC(CC(C3)C1)C2)c1ccc(S(=O)(=O)N2CCOCC2)cc1,1.24%
11,COc1ccc(N2C(=O)[C@@H]3[C@H](C2=O)[C@H](C(C)=O)N2c4ccccc4C=C[C@@H]32)cc1,2.41%
12,CC1(C)Cc2c(sc(NC(=O)c3ccc(Br)o3)c2C#N)CO1,16.6%
13,COCCNC(=O)c1ccc2c(c1)ncn2-c1ccc(C)c(Cl)c1,-17.8%
14,Cc1onc(-c2ccccc2)c1C(=O)OCC(=O)Nc1ccc2c(c1)OCO2,11.7%
15,COc1ccc(C(C)=O)cc1COC(=O)CNC(=O)c1cc(C)cc(C)c1,-11.7%
16,Cc1nnc(SCC(=O)N(C)Cc2ccccc2)[nH]c1=O,6.86%
17,CCn1c(C)c(C)c2cc(C(=O)NCCCN3CCCCC3C)ccc21 (stereo not drawn),-36.7%
18,COc1ccc(N(C)S(=O)(=O)c2cccc(C(=O)NC3CCCCC3C)c2)cc1 (stereo not drawn),-6.33%
19,COc1ccc(C2N(Cc3ccccc3)CC(=O)N2/N=C(\C)c2ccccc2)cc1 (stereo not drawn),5.62%

row,SMILES,"hERG current change (%, negative = inhibition) at 10uM"
1,O=C(Nc1nnc(C2CC2)s1)C1=NN(C2CCS(=O)(=O)C2)C(=O)CC1 (stereo not drawn),0.219%
2,C/C=C/c1cc(CN2CCN(c3ccc(OC)cc3)CC2)c(O)c(OC)c1,-68.7%
3,COc1ccc(C2C(C#N)=C(N)Oc3cc(N)ccc32)cc1 (stereo not drawn),-0.464%
4,CCN(CC)Cc1cc(CCNC(=O)c2ccc(Cl)cc2)ccc1O,-30%
5,Cc1cc(C)n(C(=O)COc2ccccc2C)n1,-3.33%
6,O=C1c2ccccc2C(=O)N1CN(C(=O)c1ccccc1)c1ccc(O)cc1,7.61%
7,C#CCOC(=O)c1ccccc1C(=O)N(CC)CC,17.4%
8,CC1CC(C)(C)N(C(=O)CN2CCN(C)CC2)c2ccccc21.O=C(O)C(=O)O (stereo not drawn),10.6%
9,C=CCOc1ccc(/C=C/C(=O)OCC(=O)N(C)C2CCS(=O)(=O)C2)cc1 (stereo not drawn),-8.77%
10,CCOC(=O)Cn1cc(Cl)c(=O)c(Cl)c1,0.91%
11,Cc1cc(C)n2cc(COc3ccccc3)nc2n1,-8.64%
12,O=C(Nc1ccc(Cc2ccncc2)cc1)c1cc([N+](=O)[O-])ccc1N1CCOCC1,-39%
13,O=C(Oc1cccc(Cl)c1)N1CCOCC1,0.554%
14,COc1ccc(Cl)cc1NC(=O)CSc1nnc(Cc2cccn2C)n1-c1ccc(F)cc1,-34.6%
15,O=C(NC1CCCC1)c1ccc2c(c1)N(Cc1ccc(F)cc1)CCS2,-30.1%
16,CN(C)c1cccc(-c2nnc(SCCCC#N)o2)c1,-5.09%
17,COc1ccc([N+](=O)[O-])cc1NC(=O)CSc1nc(C)c(C)c(C)n1,-5.9%
18,COc1ccccc1NC(=O)CN1CCN(CC(=O)Nc2ccc(F)cc2)CC1,-79.2%
19,O=c1cc(-c2ccccc2Cl)oc2c(NS(=O)(=O)c3cc(Cl)cc(Cl)c3O)ccc(O)c12,27.3%

# — publication PMC4336329 (PLoS ONE, 2015)
